Laboratory results published in PubChem BioAssay AID624418 (National Center for Advancing Translational Sciences (NCATS), 2012).
Several values for one entry are separate records, joined by “and”; a condition that tells them apart may be missing. Identical values can stand only once. In all, about 410,000 compounds went through this assay and about 530 (0.13%) were called active. Inconclusive means that the source gave no clear call. Such entries were picked first, then a sample of the others. The call rests on the fitted dose curve; in most records, active means well fitted inhibition curve with a large enough effect; inconclusive means small, poorly fitted or top-dose-only effect, or another doubt; inactive means no such curve, though single readings can be large or run the other way. Potencies beside an inconclusive call are fits to weak or partial responses and may not hold up.

Test: qHTS of GLP-1 Receptor Inverse Agonists: Cytotox Screen
Details: HEK293 cAMP-luciferase reporter cells, luminescence, 24 h; activity change, negative = inhibition: at 38.3 µM (top of the series) unless noted
How it was run: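 Cells in DMEM/10% Nu serum/1% pen-strep, 1536-well format. Pre-incubated 12 h, dosed with 23 nL compound, incubated a further 24 h. Luciferase detection, 12 min at room temp, luminescence.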
On the % scale 0 is the no-effect control and ±100 the full control effect; potency means the concentration at half of the fitted maximal effect.

Question: For CCOC(=O)CNC(=S)N1CCn2c(nc3ccccc32)C1, which Potency is on record?
Answer: The Potency was inconclusive: 3.55 µM [inhibitor, full curve, poor fit].

Question: Which “activity change, negative = inhibition” value does the source give for COc1ccc(NC(=O)Cn2nnc(-c3ccccc3NS(=O)(=O)c3ccccc3)n2)cc1 here?
Answer: The value was inactive: -0.845%.

Question: For CCOC(=O)Nc1ccc2c(c1)N(C(=O)CCN(C)C)c1ccccc1CC2, which Potency is on record?
Answer: The Potency was inconclusive: 22.4 µM [inhibitor, single point].

Question: Which Potency does the source give for COC1=CC(=O)C(OC)=C(OC)C1=O here?
Answer: The Potency was inconclusive: 28.2 µM [inhibitor, single point].

Question: For CNC(=S)NNc1ccccc1[N+](=O)[O-], which activity change, negative = inhibition is on record?
Answer: The activity change, negative = inhibition was inactive: -2.91% [at 0.307 µM].

Question: For CCNCc1nc2cc(Cl)ccc2c(=O)[nH]1, which Potency is on record?
Answer: Its Potency is inconclusive: 11.2 µM [inhibitor, single point].

Question: Which Potency does the source give for COc1ccc(-c2nc(-c3ccccc3)c(-c3cc([N+](=O)[O-])ccc3C)[nH]2)cc1O here?
Answer: The Potency was inconclusive: 3.55 µM [inhibitor, partial curve, poor fit].

Question: With CC(=O)Nc1ccc(NC(=O)c2ccc(NS(=O)(=O)c3cc(C(C)(C)C)ccc3C)cc2)cc1 as the molecule, how does the “activity change, negative = inhibition” value read?
Answer: Its value is inactive: -6.89%.

Question: For O=C1C(NS(=O)(=O)c2ccccc2)=C(N2CCN(c3ccc(F)cc3)CC2)C(=O)c2ccccc21, which Potency is on record?
Answer: The Potency was inconclusive: 12.6 µM [inhibitor, single point].

Question: For CCN1CCN(c2ccc(NC(=O)c3ccc([N+](=O)[O-])o3)cc2Cl)CC1, which Potency is on record?
Answer: The Potency was active: 5.62 µM.

Question: With O=C(NCC(=O)N(CC1CCCO1)C(C(=O)NC1CCCCC1)c1ccccc1)c1cccs1 (stereo unspecified) as the molecule, how does the Potency read?
Answer: Its Potency is inconclusive: 0.891 µM [inhibitor, full curve, poor fit].

Question: With COc1cc2ncc(C(=O)c3ccccc3)c(N3CCN(Cc4ccccc4)CC3)c2cc1OC as the molecule, how does the Potency read?
Answer: The Potency was inconclusive: 11.2 µM [inhibitor, single point].

Question: For Cc1c(C#N)c(NC(=O)CCl)n(Cc2ccccc2)c1C, which Potency is on record?
Answer: Its Potency is inconclusive: 31.6 µM [inhibitor, partial curve, poor fit].

Question: Which Potency does the source give for COc1ccc(C(=O)NCC(=O)N/N=C/c2ccc([N+](=O)[O-])o2)cc1OC here?
Answer: Its Potency is inconclusive: 28.2 µM [inhibitor, single point].

Question: Which “activity change, negative = inhibition” value does the source give for COc1ccc(-c2nc(CNS(=O)(=O)c3ccccc3)cs2)cc1 here?
Answer: The value was inactive: -4.84%.

Question: Which Potency does the source give for O=C(NC(=S)N1CCOCC1)C12CCC3CC(CC(C3)C1)C2 here?
Answer: Its Potency is inconclusive: 28.2 µM [inhibitor, single point].

Question: Which Potency does the source give for Oc1ccc(N=Cc2ccc(O)c(O)c2)cc1 here?
Answer: Its Potency is inconclusive: 28.2 µM [inhibitor, single point].

Question: With Cc1ccc2c(c1)-c1nc(-c3ccc4c(c3)NC(=O)CO4)cc(-c3ccc(Cl)cc3)c1CO2 as the molecule, how does the “activity change, negative = inhibition” value read?
Answer: Its value is inactive: 1.96%.

Question: For O=C(Nc1ccccn1)c1csc2c1CCCC2, which “activity change, negative = inhibition” value is on record?
Answer: Its value is inactive: 6.44%.

Question: With CCOC(=O)/C(=N\Nc1ccccc1[N+](=O)[O-])c1csc(Nc2ccccc2)n1 as the molecule, how does the Potency read?
Answer: The Potency was inconclusive: 14.1 µM [inhibitor, partial curve, poor fit].

Question: For COc1ccc(-c2noc(-c3ccoc3C)n2)cc1, which “activity change, negative = inhibition” value is on record?
Answer: Its value is inactive: -2.69%.

Question: Which Potency does the source give for CCc1ccc(NC(=S)N2CCCC(C(F)(F)F)C2)cc1 (stereo unspecified) here?
Answer: Its Potency is inconclusive: 14.1 µM [inhibitor, single point].

Question: For Cc1cc(C)nc(N2CCC(C(=O)NCc3ccccc3F)CC2)n1, which “activity change, negative = inhibition” value is on record?
Answer: Its value is inactive: -24.8%.

Question: Which Potency does the source give for Cc1cc(Cl)c(OCCOCCN2CCC(C)CC2)c(Br)c1 here?
Answer: The Potency was inconclusive: 11.2 µM [inhibitor, single point].

Question: For COc1ccc(OCC(=O)N2CCCC(CO)(CCOc3ccccc3)C2)cc1 (stereo unspecified), which “activity change, negative = inhibition” value is on record?
Answer: The value was inactive: -7.15%.

Question: With CCN(CC)c1ccc(NC(=O)CSc2nc(C3CC3)nc3ccccc23)cc1C as the molecule, how does the Potency read?
Answer: The Potency was inconclusive: 7.08 µM [inhibitor, partial curve, poor fit].

Question: With Cn1c(C(=O)Nc2ccc3c(c2)OCCO3)cc2sccc21 as the molecule, how does the Potency read?
Answer: Its Potency is inconclusive: 28.2 µM [inhibitor, single point].

Question: With COC(=O)C1=NN(C(=O)c2ccccc2)C(O)(c2ccc([N+](=O)[O-])cc2)C1 (stereo unspecified) as the molecule, how does the Potency read?
Answer: Its Potency is inconclusive: 10 µM [inhibitor, single point].

Question: For COc1ccccc1N1C(=O)C2CC(C)=C(C)CC2C1=O (stereo unspecified), which “activity change, negative = inhibition” value is on record?
Answer: Its value is inactive: -7.48%.

Question: Which “activity change, negative = inhibition” value does the source give for CC(O)[C@H](NC(=O)C1(c2ccccc2)CCN(C(=O)OC(C)(C)C)CC1)C(=O)O (stereo partly specified) here?
Answer: The value was inactive: -10.2%.

Question: Which “activity change, negative = inhibition” value does the source give for COC(=O)c1ccccc1NC(=O)c1c(NC(=O)c2ccco2)sc2c1CCC(C(C)(C)C)C2 (stereo unspecified) here?
Answer: Its value is inactive: 13.8%.

Question: Which Potency does the source give for CCn1ncc(Cl)c1C(=O)NC(=S)Nc1c(C)cc(C)cc1[N+](=O)[O-] here?
Answer: Its Potency is inconclusive: 12.6 µM [inhibitor, single point].

Question: Which Potency does the source give for CCCCCc1c2c(cc(O)c1C(=O)O)OC(=O)c1c(cc(OC)cc1C(=O)CCCC)O2 here?
Answer: The Potency was inconclusive: 12.6 µM [inhibitor, single point].

Question: Which Potency does the source give for CC(Nc1nc(-c2ccc(F)cc2)cs1)c1nc2cc(Cl)c(N3CCCCC3)cc2n1CCOCCO (stereo unspecified) here?
Answer: Its Potency is inconclusive: 0.708 µM [inhibitor, full curve, poor fit].

Question: With O=C(NCCN1CCOCC1)c1ccc(Cl)c(S(=O)(=O)N2CCCCC2)c1 as the molecule, how does the “activity change, negative = inhibition” value read?
Answer: Its value is inactive: 6.25%.

Question: Which Potency does the source give for Cc1cncn1CCc1nc2c3ccccc3nc(SCC(=O)Nc3cccc(Cl)c3)n2n1 here?
Answer: Its Potency is inconclusive: 20 µM [inhibitor, single point] and inconclusive: 28.2 µM [inhibitor, single point].

Question: With CCOc1cc2c(cc1O)C(=NOC)CC1C2CCC2(C)C(O)CCC12 (stereo unspecified) as the molecule, how does the Potency read?
Answer: The Potency was inconclusive: 1.26 µM [inhibitor, partial curve, poor fit].

Question: Which “activity change, negative = inhibition” value does the source give for O=C1CCN(Cc2ccccc2)CCN1[C@H](CO)c1ccccc1 here?
Answer: The value was inactive: 13.4%.

Question: With Cc1ccccc1OCC(O)Cn1c(=N)n(CCN2CCCCC2)c2ccccc21 (stereo unspecified) as the molecule, how does the Potency read?
Answer: The Potency was inconclusive: 28.2 µM [inhibitor, single point].

Question: With COc1ccc(N2CC(NC(=O)c3cc4ccccc4o3)CC2=O)cc1OC (stereo unspecified) as the molecule, how does the “activity change, negative = inhibition” value read?
Answer: Its value is inactive: 6.53%.

Question: For Cc1ccc(N/N=C(\C#N)C(N)=S)cc1C, which Potency is on record?
Answer: The Potency was inconclusive: 12.6 µM [inhibitor, partial curve, poor fit].

Question: With Cc1ccc(C)c(NC(=S)N/N=C2\CCc3ccccc32)c1 as the molecule, how does the Potency read?
Answer: Its Potency is inconclusive: 2.24 µM [inhibitor, full curve, poor fit].

Question: For CN(C)CCCN(C(=O)c1ccc(Br)s1)c1nc2cc3c(cc2s1)OCO3, which Potency is on record?
Answer: Its Potency is inconclusive: 28.2 µM [inhibitor, single point].

Question: With CCC/C=C1/CCCOC(C(=O)NCc2ccccn2)(C(F)(F)F)C1 (stereo unspecified) as the molecule, how does the “activity change, negative = inhibition” value read?
Answer: Its value is inactive: 15%.

Question: For CN1CCN(C2Cc3cc(F)ccc3Sc3ccc(Cl)cc32)CC1 (stereo unspecified), which Potency is on record?
Answer: Its Potency is inconclusive: 10 µM [inhibitor, single point].

Question: For Cc1cccc(NCC(=O)N/N=C\c2c[nH]c3ccccc23)c1, which Potency is on record?
Answer: Its Potency is inconclusive: 6.31 µM [inhibitor, partial curve, poor fit].

Question: With CS(=O)(=O)c1ncc(Cl)c(C(=O)Nc2ccc(N3CCOCC3)cc2)n1 as the molecule, how does the Potency read?
Answer: Its Potency is inconclusive: 28.2 µM [inhibitor, single point].

Question: For CCc1nnc(NC(=O)/C=C/c2ccco2)s1, which “activity change, negative = inhibition” value is on record?
Answer: The value was inactive: -2.14%.

Question: Which Potency does the source give for CCCN(CCC)C(=O)c1ccc2c(c1)OCO2 here?
Answer: The Potency was inconclusive: 4.47 µM [inhibitor, partial curve, poor fit].

Question: With Cc1cc(C)c(NC(=S)NC(=O)c2ccccc2)cc1C as the molecule, how does the Potency read?
Answer: The Potency was inconclusive: 5.62 µM [inhibitor, partial curve].

Question: For Cc1ccc(N2C(=O)C(c3c(C)[nH]n(-c4ccccc4)c3=O)(C(F)(F)F)C3=C2CC(C)(C)CC3=O)cc1 (stereo unspecified), which “activity change, negative = inhibition” value is on record?
Answer: Its value is inactive: -4.84%.

Question: Which Potency does the source give for COc1cc(OC)nc(Nc2nc(C(N)Cc3ccc(F)cc3)cs2)n1 (stereo unspecified) here?
Answer: The Potency was inconclusive: 28.2 µM [inhibitor, single point].

Question: Which Potency does the source give for COc1ccc(NS(=O)(=O)c2cc(OC)ccc2NC(=O)c2cc(C)oc2C)cc1 here?
Answer: The Potency was inconclusive: 3.98 µM [inhibitor, partial curve, poor fit].

Question: For CCOc1ccc2nc(N3C(=O)CNC3=S)sc2c1, which Potency is on record?
Answer: The Potency was inconclusive: 7.08 µM [inhibitor, partial curve, poor fit].

Question: Which Potency does the source give for O=C(NCc1ccccn1)c1nc(Cn2ccc([N+](=O)[O-])n2)no1 here?
Answer: Its Potency is inconclusive: 28.2 µM [inhibitor, single point].

Question: Which Potency does the source give for COc1ccc(S(=O)(=O)N(Cc2ccccc2)Cc2nc3ccccc3c(=O)[nH]2)cc1 here?
Answer: The Potency was inconclusive: 11.2 µM [inhibitor, single point].

Question: With Cc1ccccc1OCc1nnc(SCCN2CCCC2)n1-c1ccccc1 as the molecule, how does the Potency read?
Answer: The Potency was inconclusive: 22.4 µM [inhibitor, single point].

Question: For COC(=O)c1ccc2c(=O)n(-c3ccccc3F)c(=S)[nH]c2c1, which “activity change, negative = inhibition” value is on record?
Answer: The value was inactive: 7.34%.

Question: Which Potency does the source give for O=C(NC(=S)Nc1cc([N+](=O)[O-])ccc1O)C1CC1 here?
Answer: Its Potency is inconclusive: 10 µM [inhibitor, single point].

Question: With CCOc1ccc(-n2c(O)c(/C=N/Nc3nnc(C)c(=O)[nH]3)c3ccccc3c2=O)cc1 as the molecule, how does the Potency read?
Answer: Its Potency is inconclusive: 3.16 µM [inhibitor, full curve, poor fit].

Question: Which “activity change, negative = inhibition” value does the source give for CCCc1nc2ccccc2n2c(-c3ccc(C)cc3)c3c(=O)n(C)c(=O)n(C)c3c12 here?
Answer: The value was inactive: 5.21%.

Question: Which Potency does the source give for O=C1Nc2cc(C(=O)N3CCC(N4CCCCC4)CC3)ccc2S/C1=C\c1ccccc1 here?
Answer: Its Potency is inconclusive: 11.2 µM [inhibitor, partial curve, poor fit].

Question: Which Potency does the source give for CCOC(=O)C(=CNc1ccc(Oc2cncc(Cl)c2)nc1)C(=O)OCC here?
Answer: Its Potency is inconclusive: 28.2 µM [inhibitor, single point].

Question: For COc1ccccc1N=NNc1ccccc1OC, which Potency is on record?
Answer: The Potency was inconclusive: 10 µM [inhibitor, partial curve, poor fit].

Question: Which Potency does the source give for Cc1cccc(C(=O)NC(=S)Nc2ccccc2C(F)(F)F)c1 here?
Answer: Its Potency is inconclusive: 10 µM [inhibitor, partial curve, poor fit].

Question: Which Potency does the source give for Cn1cnc([N+](=O)[O-])c1Sc1nnc(-c2cccnc2)n1C here?
Answer: Its Potency is inconclusive: 10 µM [inhibitor, partial curve, poor fit].
